Laboratory results reported in PubChem BioAssay AID1345082 (National Center for Advancing Translational Sciences (NCATS), 2018).
Hit rate of the full screen: of about 94,000 compounds, about 4,000 (4.3%) were called active. Inconclusive results, whose numbers are uncertain, are shown with a selection of clear calls. The call rests on the fitted dose curve; in most records, active means well fitted inhibition curve with a large enough effect; inconclusive means small, poorly fitted or top-dose-only effect; inactive means no such curve, though single readings can be large or run the other way. Where the call is inconclusive, the potency comes from a doubtful curve fit.

Test: Cytotoxic Profiling in NIH 3T3 Cell Line of Diverse Libraries Using Quantitative High-Throughput Screening; further: nearly all actives have a fitted effect of over 55% in size
Conditions: NIH 3T3 viability, CellTiter-Glo ATP luminescence, 48-72 h; series mostly up to 96.7 µM
In short: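 ATP-dependent luminescence (CellTiter-Glo) served as the viability signal for NIH 3T3 cells treated with compound for 48 or 72 hr at 37 °C.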
Potency means the concentration at half of the fitted maximal effect; tags describe the fitted curve by direction and shape.

Compound | Potency
O=C(NCc1ccc2c(c1)OCO2)c1cnc2c(c1)N(Cc1ccccc1)CCC2 | active: 50.1 µM
Cn1cc(CN2CC3(COCC(=O)N(Cc4cccc(OC(F)(F)F)c4)C3)C2)cn1 | inactive
O=C(Cc1ccccn1)NCC1COc2ncncc2C(=O)N1Cc1ccccc1 (centres undefined) | inconclusive: 89.1 µM [inhibitor, partial curve, poor fit]
CCOC(=O)C1CCCN(C(=O)C2COC3(CCCCC3)N2C(=O)c2cccc(Cl)c2)C1 (centres undefined) | inactive
COc1ccccc1-n1c(=O)c(C(=O)N2CCN(C(=O)c3ccc(F)cc3)CC2)nc2cccnc21 | inactive
CCC(=O)N1CCCC(c2nc(-c3ccccc3)no2)CCNC(=O)CC1 (centres undefined) | inactive
COc1ccc(-c2cc(N3CCC(NC(=O)c4ccc(N(C)C)cc4)C3)n[nH]2)cc1 (centres undefined) | inconclusive: 50.1 µM [inhibitor, partial curve, poor fit]
O=C1Nc2ccccc2C12CCN([S+](=O)([O-])c1ccsc1)CC2 | inactive
CCC(c1cccs1)N1C(=O)[C@H]2CN(S(=O)(=O)c3cccc(Cl)c3)C[C@H]2C1=O (some centres undefined) | inactive
Cc1ccc(-c2cc(N3CCC(CNC(=O)c4n[nH]c5c4CCCC5)CC3)n[nH]2)cc1 | active: 28.2 µM
CCc1cccc(NC(=O)N2CCc3c(c4cc(F)ccc4n3C)C2)c1 | inconclusive: 39.8 µM [inhibitor, partial curve, poor fit]
COc1ncccc1-c1cc(C(=O)N(C)CCN(C)C)c2c(c1)ncn2C | inconclusive: 44.7 µM [inhibitor, partial curve, poor fit]
COCc1nc2nc(-c3ccccc3)c(-c3ccc(OC)cc3)cc2n1C | inconclusive: 56.2 µM [inhibitor, partial curve, poor fit]
COCC1CN(C2CCC2)CC12CCN(C(=O)NCc1ccc(F)cc1)CC2 (centres undefined) | inconclusive: 50.1 µM [inhibitor, partial curve, poor fit]
Cn1nccc1C(=O)N1CCC2(CC1)OC(=O)N(Cc1ccccc1)C2(C)c1cccnc1 (centres undefined) | active: 28.2 µM
CO[C@H]1CN(C(C)C)[C@H]1C1CCN(C(=O)C2CC=CC2)CC1 | inactive
O=C1CCCN1CCN1CCOc2c(O)cc(-c3csc4ccccc34)cc2C1 | inconclusive: 50.1 µM [inhibitor, partial curve, poor fit]
CCn1nccc1C(=O)N1CCCCCCNC(=O)[C@@H]2C[C@@H](c3nc(Cc4ccccc4)no3)C[C@@H]21 | inactive
COc1ncccc1-c1nc2cc(C(=O)NCCCc3ccccc3)ccc2o1 | inconclusive: 50.1 µM [inhibitor, partial curve, poor fit]
